Each structure is given as a SMILES string. The list shows a part of the results. These are further read-outs of the screen, such as a control signal, another cell line or another target. No call is given for them.

Experiment in all cases: Primary Screen for Target Class Profiling of Small Molecule Inhibitors of Methyltransferases
In test [1] the target is Glycine N-methyltransferase (Homo sapiens) (UniProt Q14749). Particulars: purified enzyme, MTase-Glo SAH luminescence; measured here: GNMT inhibition; at 40 µM; stronger effect = lower value. The essentials: (§1)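 Each enzyme was reacted with SAM and its substrate, with compounds tested once at 40 uM; SAH formed was read by MTase-Glo luminescence.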
Test [2] has as its target Guanidinoacetate N-methyltransferase (Homo sapiens) (UniProt Q14353). The settings on record: purified enzyme, MTase-Glo SAH luminescence; measured here: GAMT inhibition; at 40 µM; stronger effect = lower value. In short, it runs like this:
as §1

In test [3] the target is Histamine N-methyltransferase (Homo sapiens) (UniProt P50135). The settings on record: purified enzyme, MTase-Glo SAH luminescence; measured here: HNMT inhibition; at 40 µM; stronger effect = lower value. In short, it runs like this: as §1
Test [4] has as its target Nicotinamide N-methyltransferase (Homo sapiens) (UniProt P40261). The settings on record: purified enzyme, MTase-Glo SAH luminescence; measured here: NNMT inhibition; at 40 µM; stronger effect = lower value. In short, it runs like this:
as §1

The target in test [5] is Phenylethanolamine N-methyltransferase (Homo sapiens) (UniProt P11086). The settings on record: purified enzyme, MTase-Glo SAH luminescence; measured here: PNMT inhibition; at 40 µM; stronger effect = lower value. The essentials:
as §1
% is set by controls: 0 for no effect and ±100 for the full control effect.

Consider `Cc1noc([C@@H]2C[C@H](NC(=O)C3CCCCC3)CN2C)n1`, for which the activity change, negative = inhibition in test [1] was -3.04%; in test [2], -6.82%; in test [3] it was -1.44%; in test [4], -5.43%; in test [5] it was 4.04%.
On to `O=C(Cn1ccc2cc(S(=O)(=O)N3CCCCC3)ccc21)NCc1ccccc1`, for which the activity change, negative = inhibition in test [1] is -0.602%; in test [2], 0%; in test [3], 0.339%; in test [4], -3.65%; in test [5] it was 0.435%.
Take `CC(=O)C(C)=O`: the activity change, negative = inhibition in test [1] is -3.66%; in test [2], 5.13%; in test [3], 1.7%; in test [4] it was -3.31%; in test [5] it was 12.9%.
For `COc1ccc(C(=O)Nc2ccc3c(c2)C(=O)N(C)C2=NCCN23)cc1OC`, in that order: -21.3%, -4.62%, 0.864%, -10.1% and -6.5%.
On to `Cc1ncc2n1C(=O)N(C1CCN(Cc3ccncc3)CC1)C2`, for which the activity change, negative = inhibition in test [1] is -6.62%; in test [2], -7.24%; in test [3] it was -4.28%; in test [4] it was -13.9%; in test [5] it was -8.12%.
The corresponding values for `CCCn1c(=O)c2ccccc2n2c(SCc3ccccc3C)nnc12` are -14.5%, 0%, 9.17%, -6.8% and 6.86%.
Consider `COc1ccc(N2CCN(c3nc(C(=O)NCc4cccc(C)c4)cs3)CC2)cc1`, for which the activity change, negative = inhibition is -9.4% in test [1]; -9.27% in test [2]; -7.77% in test [3]; -13.3% in test [4]; -7.54% in test [5].
Take `CCN1C(=O)c2cc(C(=O)NCc3cccc(OC)c3)nn2CC1(C)C(=O)NC1CCCC1` (stereo not given): the activity change, negative = inhibition in test [1] was 2.07%; in test [2], 3.34%; in test [3] it was -4.25%; in test [4] it was 1.21%; in test [5], 0.411%.
Consider `CCCn1c(=O)c2ccc(Cl)cc2n2c(=O)n(CC(=O)c3ccc(OC)c(OC)c3)nc12`, for which the activity change, negative = inhibition in test [1] amounted to 3.57%; in test [2], 0.065%; in test [3] it was 13%; in test [4] it was 10.9%; in test [5] it was 5.65%.
Regarding `COc1ccc(CNC(=O)c2cc(-c3cncc(C)c3)ncc2-c2nccs2)nc1OC`, the activity change, negative = inhibition in test [1] was -15.8%; in test [2] it was 0.036%; in test [3], 3.82%; in test [4] it was -19.5%; in test [5], -0.995%.
As to `COC1CCC12CCN(Cc1ccc(C)s1)CC2` (stereo not given), the activity change, negative = inhibition in test [1] is -0.386%; in test [2], 0.405%; in test [3], 1.44%; in test [4], 0.185%; in test [5], -0.636%.
Take `CC1(C)Oc2ncnc(N)c2N=C1c1ccc(C23CCC(CC(=O)O)(CC2)CC3)cc1`: the activity change, negative = inhibition is -36.5% in test [1]; -17.9% in test [2]; -2.15% in test [3]; -33.3% in test [4]; -3.66% in test [5].
On to `CCCN1C(=O)c2c(C(=O)NCc3ccc(OC)cc3OC)ncn2CC1(C)C(=O)NCc1ccc(F)cc1` (stereo not given), for which the activity change, negative = inhibition was 1.12% in test [1]; 0.565% in test [2]; 3.81% in test [3]; -3.15% in test [4]; 7.2% in test [5].
As to `CNC(=O)O[C@H]1COc2ccc(N3CCN(C4COC4)CC3)cc2[C@@H]1NC(=O)c1ccc(F)cc1`, the activity change, negative = inhibition in test [1] is -7.32%; in test [2] it was -7.86%; in test [3], 0.031%; in test [4], -17.7%; in test [5], -3.22%.
The corresponding values for `O=C1c2c(-c3nc(-c4ccsc4)no3)nnn2CCN1Cc1cccc(Cl)c1` are -5.35%, 0.256%, -3.5%, -0.547% and -0.553%.
Turning to `CC(C)=C[C@@H]1[C@H](CO[C@@H]2O[C@H](CO)[C@@H](O)[C@H](O)[C@H]2O)C1(C)C`, the activity change, negative = inhibition in test [1] is 3.57%; in test [2] it was -3.14%; in test [3], 8.57%; in test [4] it was -8.49%; in test [5] it was -0.018%.
Consider `Cc1cc2c(cc3n2CC(C)(C(=O)NC2CCCCCCC2)N(Cc2ccccc2C)C3=O)o1` (stereo not given), for which the activity change, negative = inhibition in test [1] is -2.8%; in test [2], 1.78%; in test [3], -2.25%; in test [4], 2.9%; in test [5], -3.09%.
With `CN(C)[C@@H]1CO[C@H](CNC(=O)N2CCOCC2)[C@H]1O`, the activity change, negative = inhibition was -0.322% in test [1]; 0.836% in test [2]; 3.57% in test [3]; 1.94% in test [4]; 12.8% in test [5].
Take `COc1ccc(CNC(=O)c2ccc3nnc(C4CCOCC4)n3c2)cc1`: the activity change, negative = inhibition was 6.83% in test [1]; -0.895% in test [2]; -2.1% in test [3]; -0.068% in test [4]; -0.162% in test [5].
Regarding `C[C@@H]1O[C@@H](O[C@H]2[C@H](O)[C@@H](O)[C@H](OC[C@H]3O[C@@H](OC(=O)[C@]45CCC(C)(C)C[C@H]4C4=CCC6[C@@]7(C)C[C@@H](O)[C@H](O)[C@@](C)(CO)C7[C@H](O)C[C@@]6(C)[C@]4(C)CC5)[C@H](O)[C@@H](O)[C@@H]3O)O[C@@H]2CO)[C@H](O)[C@H](O)[C@H]1O` (stereo not given in full), the activity change, negative = inhibition in test [1] is -0.296%; in test [2], 0.698%; in test [3], 2.41%; in test [4], -13.4%; in test [5], 4.33%.
For `COc1ccc(NC(=O)C(C)(C)Oc2nn(CC3CC3)c3ccc(CN4CCCC4)cc23)cc1`, in that order: -3.49%, -0.524%, -79.5%, -4.57% and -1.82%.
As to `COc1ccc2cc3n(c2c1)CC(C)(C(=O)NC1CCCC1)N(CCc1cccs1)C3=O` (stereo not given), the activity change, negative = inhibition in test [1] is -5.58%; in test [2], 4.05%; in test [3] it was -0.591%; in test [4], -2.62%; in test [5] it was -6.03%.
Regarding `Cc1ccc(NC(=O)Cn2nc3n(CCCOC(C)C)c(=O)c4ccccc4n3c2=O)c(Cl)c1`, the activity change, negative = inhibition in test [1] was 3.31%; in test [2] it was 0.026%; in test [3], 3.2%; in test [4], 2.05%; in test [5], 3.9%.
In the case of `Cn1cc(-c2ccc3nnc(C(F)(F)c4ccc5ncccc5c4)n3n2)cn1`, the activity change, negative = inhibition is -21.9% in test [1]; -14.9% in test [2]; -21.5% in test [3]; -26.9% in test [4]; -20.7% in test [5].
On to `c1ccc(OCc2noc(-c3ccc(NC4CCSC4)nc3)n2)cc1` (stereo not given), for which the activity change, negative = inhibition in test [1] was -5.43%; in test [2] it was -5.55%; in test [3], -8.72%; in test [4] it was -6.5%; in test [5], -4.68%.
With `C=C[C@H]1[C@H](O[C@@H]2O[C@H](CO)[C@@H](O)[C@H](O)[C@H]2O)OC=C2C(=O)N3Cc4c([nH]c5ccccc5c4=O)[C@@H]3C[C@H]21`, the activity change, negative = inhibition in test [1] is -0.895%; in test [2], -1.83%; in test [3] it was 6.72%; in test [4] it was -11.6%; in test [5], -7.77%.
For `CC1OC(O[C@@H]2[C@H](O)[C@@H](OC3OC(CO)C(O)C(O)C3O)[C@H](OC(=O)[C@]34CCC(C)(C)C[C@H]3C3=CCC5[C@@]6(C)CC[C@H](O[C@@H]7O[C@H](C(=O)O)[C@@H](O)[C@H](O[C@@H]8OC[C@@H](O)[C@H](O)[C@H]8O)[C@H]7O[C@@H]7O[C@H](CO)[C@H](O)[C@H](O)[C@H]7O)[C@@](C)(C=O)C6CC[C@@]5(C)[C@]3(C)C[C@H]4O)O[C@@H]2C)C(O)C(O)C1OC1OCC(O)C(O)C1O` (stereo not given in full), in that order: 0%, 3.21%, 8.39%, -7.82% and 1.63%.
Take `CCN1CCn2c3c(c4cc(C)ccc42)CCCC31` (stereo not given): the activity change, negative = inhibition was -0.247% in test [1]; 0% in test [2]; 0.495% in test [3]; 12% in test [4]; -4.47% in test [5].

The values are drawn from PubChem BioAssay AID1745853 (National Center for Advancing Translational Sciences (NCATS), 2022).
